Experimental data as given in the supplement of paper PMC3334620.
Whole data set: some 33,000 sequences, median “E-score (-0.5 to 0.5)” near -0.016, cut for the highest 2% near 0.31. The list shows a part of the results.

Molecular target: Cst6 (UniProt P40535)
Test: PBM E-score (8-mer binding enrichment) (E-score (-0.5 to 0.5)); higher = stronger / more preferred TF binding; most listed sequences are background and not binding sites
Details: protein concentration: 200 nM; construct: GST-DNA-binding domain
Method in brief: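 Yeast transcription factors carrying a GST tag, as full-length proteins or DNA-binding domains, were produced by PURExpress in vitro transcription/translation. About 100-200 nM protein was applied to universal all-10-mer Agilent arrays, double-stranded by primer extension on fresh or once-stripped slides. Bound protein was detected with fluorescent anti-GST, and scans were normalised with masliner. The Universal PBM Analysis Suite gave each ungapped eight-base word, pooled with its reverse complement, an E-score, a modified Wilcoxon-Mann-Whitney statistic.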

Sequence | PBM E-score
CTACCCGC | -0.189
GTCTGTAA | 0.0809
GGATGGAC | -0.168
CATTCTGA | 0.105
ACAGTTCA | 0.0816
CACCCTAA | 0.074
GCGCTCAA | -0.165
AATCATCT | 0.114
CCTGGTCA | -0.248
AGATCGTG | 0.0248
AAGGCCCA | -0.168
CACGCATG | -0.0721
TTCTGCAA | 0.138
ATATGCTC | 0.0642
ATACGCAT | 0.0826
CACGGCGG | 0.245
CTATACGA | -0.0464
ACCTATCA | -0.0999
ACCTAGTA | -0.284
AAGATAAG | 0.225
GGGCTGTA | -0.256
TACCGGTA | -0.149
AGACGATA | 0.0849
AATGCGGA | 0.0319
CTGAGTCA | 0.0612

Sequence | PBM E-score
AACCAAGT | 0.11
ATGTGACC | 0.0452
ATGAGAGA | 0.108
AAGCAGGA | -0.01
CCATATGG | -0.0766
GGCCTTAA | -0.0387
TCTGCCAA | -0.144
GGTCCCAA | -0.198
CGACTGGA | -0.251
CCCCCAGC | -0.408
CATACCGA | 0.086
AGACCTGC | -0.208
AACCGAAA | 0.142
AAGACTTA | 0.0218
AGTCTGCC | -0.298
ACTAATCG | 0.0495
GAGCACGA | -0.0545
CGCGCTAG | -0.027
GATGATCA | 0.171
GCCATACA | 0.0782
ATCCACAC | -0.229
TACTTCCA | 0.0584
AAGTGTCG | -0.00286
CGTCGGTC | 0.0158
CCCCTTGA | -0.0084

Sequence | PBM E-score
TAGGTTCA | -0.0454
AGCTAGAT | -0.0478
ATAGGAGA | -0.149
GGCCGTAA | -0.0126
AGAATGCA | -0.00432
CGGCATGC | 0.0398
GTTAGCTA | -0.109
CCGGAATA | -0.181
GTTAAGCA | -0.0243
GCAGACAC | 0.0507
ATCAAATG | 0.0892
GTGGTTAA | 0.146
GCGGGGAC | -0.156
AGGTATAA | 0.0758
CGTCGTGC | 0.139
AATGTAAA | 0.258
ACTAGGGG | -0.301
TGCCTACA | -0.0823
GAACATGC | -0.095
CAATCGCC | 0.0827
AGCGATCG | 0.0232
ATCAGCAC | 0.0767
AATTCAAT | 0.229
AGTCGAAC | -0.108
ACGAAATC | 0.195

Sequence | PBM E-score
GGGCGTCA | 0.264
GCCGCCAA | -0.227
GATTTCAC | 0.189
CGCAAATA | 0.144
CCCTCACC | -0.17
GATAATAC | 0.125
ATACATAT | 0.337
AATGTAAG | 0.192
ACGCAGGA | -0.0261
AAGAGGGG | -0.193
CCGCGTCG | 0.0654
GCTTTAAA | -0.00551
GCGCGGCC | 0.167
ACGCCCTG | -0.0252
CATGCGCA | 0.0549
AATGGGCT | -0.182
TGGGGTAA | 0.0474
CCGACGCA | -0.207
AACCGGAA | -0.205
ACCCAATA | -0.034
AGCGCTGC | -0.158
CAACACAA | 0.148
ATAACATG | 0.0453
GGCTCGTA | 0.00132
GTTTACAA | 0.0819

Sequence | PBM E-score
CTCATTAC | 0.25
TCCGCCAA | -0.07
GGCATGCA | 0.0998
ACGGCCTC | -0.0387
ACTTGCTG | 0.0369
AACCCTAC | -0.229
ATGGACCC | -0.241
ATTATACG | 0.263
CATGTGTA | 0.0219
AGGCCAAG | -0.292
AGGAGCAC | -0.136
AACAGGGA | -0.00771
CGAATGCA | 0.0771
CAGAGTGC | -0.0946
AGCCTCTA | -0.347
CCCACCCC | 0.0879
ACATCTTG | -0.101
AGATATTC | 0.0543
AATAAACG | 0.157
ACAAATAC | 0.206
ATCGGGAC | -0.126
CGTCTCCA | 0.0599
AAGGGATC | -0.0719
CGGAGATA | 0.0608
AGGAGCTA | -0.0935

Sequence | PBM E-score
AGTCCAGA | -0.125
ATCCCGTA | -0.00151
CAGCACCG | -0.101
CTGAAGAC | -0.13
CCGAGTAA | -0.0295
GGTCACAC | -0.0298
ACGACTTA | -0.124
GACTGCAC | -0.16
CCAGACAA | -0.0545
TACTACGA | 0.155
TAACCCGA | -0.172
TCCTCTAA | -0.153
TAGGGTGA | 0.135
CTACCCTA | -0.177
ACTCATTC | 0.103
GTATATTA | 0.261
CGCTATCC | -0.0161
AGGTCTAC | -0.216
TCTCCAAA | -0.032
AAAGGCTT | -0.0374
AATGTTGA | 0.13
TGATAGAA | 0.006
GATTCTTA | 0.281
AAGTGCTG | 0.00351
ACTCTAAG | -0.183

Sequence | PBM E-score
CGATTGCA | 0.0317
ACTAGTCG | -0.164
CCCCTTAG | -0.377
AACAACCC | 0.00425
CTGTCCTA | -0.219
GATTCGTA | 0.0958
CATCGAAG | 0.19
AATTCTGG | -0.0752
ATTCGTGC | 0.22
ATCTAGTA | 0.224
GTCCGTAA | -0.0688
CCGGAGAA | -0.258
CGTGTGAC | 0.23
GCCATCCA | -0.118
ATCAGGGA | -0.0907
AAGTTGGC | -0.0387
ATGCTATG | 0.212
GCTGTTCC | -0.281
GAGCTTAA | -0.185
CTTCCACC | -0.0668
CCGGTACG | -0.27
AGGAGTAA | 0.0556
